These results are taken from patent publication US11000038B2, “Pyridone compounds and agricultural and horticultural fungicides containing the same as active ingredients” (priority 2017, dated 2021).

Experiment [1] has as its system grape downy mildew fungus (Plasmopara viticola). As to the kind of experiment: Test Example G: grape downy mildew, spray treatment of grape plants. To be noted: grape downy mildew, 250 ppm spray, 7 to 10 days after inoculation.
Experiment [2] concerns wheat brown rust fungi (Puccinia recondita). As to the kind of experiment: Test Example E: wheat brown rust, spray treatment of wheat plants. In kind it is in vivo. Particulars: wheat brown rust, spray treatment.
For experiment [3], the system named is barley powdery mildew fungi (Blumeria graminis f. sp. hordei). As to the kind of experiment: Test Example D: barley powdery mildew, spray treatment of barley plants. Particulars: barley powdery mildew, spray treatment.
The test system of experiment [4] is cabbage Alternaria sooty spot fungi (Alternaia brassicicola). Nature of the experiment: Test Example C: cabbage Alternaria sooty spot, spray treatment of cabbage plants. It counts as in vivo. Particulars: cabbage Alternaria sooty spot, spray treatment. The source says: [Test Example C] Cabbage Alternaria Sooty Spot
Test plants (cabbage variety: Shikidori) were cultivated until the cotyledons extended after the sowing of seeds.
<Control Value> Control value=100{1−(n/3)}

For experiment [5], the system named is gray mold fungi (Botrytis cinerea). As to the kind of experiment: Test Example B: tomato gray mold, spray treatment of tomato plants. To be noted: tomato gray mold, spray treatment.

SMILES strings stand for the structures.

Consider `Cc1c(N)cccc1-n1cc(Cl)c(=O)c(Cl)c1-c1c(F)cc(F)cc1F` [Compound 421], for which the “Test G control value” in experiment [1] is “L (L shows the control value of 50% or less)”. In addition, the “Test E control value” in experiment [2] was “H (H shows the control value of more than 50%)”. Further, the “Test D control value” in experiment [3] was “L (L shows the control value of 50% or less)”. For the same molecule, the “Test C control value” in experiment [4] was “H (H shows the control value of more than 50%)”. Also, in experiment [5], the “Test B control value” was “L (L shows the control value of 50% or less)”.

Consider `CCOc1cccc(-n2cc(Br)c(=O)c(Br)c2-c2c(F)cc(F)cc2F)c1C` [Compound 422], for which, in experiment [1], the “Test G control value” is “H (H shows the control value of more than 50%)”. In addition, in experiment [2], the “Test E control value” is given as “H (H shows the control value of more than 50%)”. The “Test D control value” in experiment [3] was “H (H shows the control value of more than 50%)”. For the same molecule, the “Test C control value” in experiment [4] is “H (H shows the control value of more than 50%)”. Also, in experiment [5], the “Test B control value” is on record as “H (H shows the control value of more than 50%)”.

On to `CCCOc1cccc(-n2cc(Br)c(=O)c(Br)c2-c2c(F)cc(F)cc2F)c1C` [Compound 423], for which, in experiment [1], the “Test G control value” is recorded as “H (H shows the control value of more than 50%)”. Moreover, the “Test E control value” in experiment [2] is reported as “H (H shows the control value of more than 50%)”. The “Test D control value” in experiment [3] is “H (H shows the control value of more than 50%)”. Also, the “Test C control value” in experiment [4] was “L (L shows the control value of 50% or less)”. The “Test B control value” in experiment [5] is listed as “H (H shows the control value of more than 50%)”.

`Cc1ccc(O)cc1-n1cc(Br)c(=O)c(Cl)c1-c1c(F)cccc1F` [Compound 426]: the “Test G control value” in experiment [1] is on record as “L (L shows the control value of 50% or less)”. Further, the “Test E control value” in experiment [2] is reported as “H (H shows the control value of more than 50%)”. Further, in experiment [3], the “Test D control value” is “L (L shows the control value of 50% or less)”. The “Test C control value” in experiment [4] is reported as “H (H shows the control value of more than 50%)”. Further, in experiment [5], the “Test B control value” was “L (L shows the control value of 50% or less)”.

As to `C=CCOc1ccc(C)c(-n2cc(Br)c(=O)c(Cl)c2-c2c(F)cccc2F)c1` [Compound 430], the “Test G control value” in experiment [1] is “L (L shows the control value of 50% or less)”. Further, the “Test E control value” in experiment [2] is recorded as “H (H shows the control value of more than 50%)”. In addition, the “Test D control value” in experiment [3] is given as “L (L shows the control value of 50% or less)”. The “Test C control value” in experiment [4] was “L (L shows the control value of 50% or less)”. The “Test B control value” in experiment [5] was “H (H shows the control value of more than 50%)”.

Regarding `CCOCOc1ccc(C)c(-n2cc(Br)c(=O)c(Cl)c2-c2c(F)cccc2F)c1` [Compound 432], in experiment [1], the “Test G control value” was “L (L shows the control value of 50% or less)”. For the same molecule, the “Test E control value” in experiment [2] was “H (H shows the control value of more than 50%)”. In experiment [3], the “Test D control value” is “H (H shows the control value of more than 50%)”. Further, the “Test C control value” in experiment [4] is listed as “H (H shows the control value of more than 50%)”. For the same molecule, the “Test B control value” in experiment [5] is on record as “H (H shows the control value of more than 50%)”.

As to `CCOc1ccc(C)c(-n2cc(Br)c(=O)c(Cl)c2-c2c(F)cccc2F)c1` [Compound 433], the “Test G control value” in experiment [1] is on record as “L (L shows the control value of 50% or less)”. Further, the “Test E control value” in experiment [2] is on record as “H (H shows the control value of more than 50%)”. Moreover, the “Test D control value” in experiment [3] is reported as “L (L shows the control value of 50% or less)”. The “Test C control value” in experiment [4] was “H (H shows the control value of more than 50%)”. The “Test B control value” in experiment [5] is “H (H shows the control value of more than 50%)”.

On to `COc1ccc(C)c(-n2cc(C)c(=O)c(C)c2-c2ccccc2)c1` [Compound 435], for which the “Test G control value” in experiment [1] is listed as “L (L shows the control value of 50% or less)”. Besides, in experiment [2], the “Test E control value” is recorded as “H (H shows the control value of more than 50%)”. Moreover, in experiment [3], the “Test D control value” is “H (H shows the control value of more than 50%)”. Besides, in experiment [4], the “Test C control value” was “H (H shows the control value of more than 50%)”. Also, the “Test B control value” in experiment [5] is recorded as “H (H shows the control value of more than 50%)”.

As to `COc1cccc(-n2cc(Cl)c(=O)c(Br)c2-c2c(F)cc(F)cc2F)c1C` [Compound 436], the “Test G control value” in experiment [1] is on record as “H (H shows the control value of more than 50%)”. The “Test E control value” in experiment [2] is “H (H shows the control value of more than 50%)”. Also, the “Test D control value” in experiment [3] is listed as “H (H shows the control value of more than 50%)”. Further, in experiment [4], the “Test C control value” is recorded as “H (H shows the control value of more than 50%)”. Moreover, the “Test B control value” in experiment [5] is on record as “H (H shows the control value of more than 50%)”.

Regarding `Cc1c(F)cccc1-n1cc(C)c(=O)c(C)c1-c1c(F)cc(F)cc1F` [Compound 437], the “Test G control value” in experiment [1] is reported as “L (L shows the control value of 50% or less)”. Also, the “Test E control value” in experiment [2] is recorded as “H (H shows the control value of more than 50%)”. Further, the “Test D control value” in experiment [3] is reported as “H (H shows the control value of more than 50%)”. Further, the “Test C control value” in experiment [4] was “H (H shows the control value of more than 50%)”. Besides, the “Test B control value” in experiment [5] is listed as “H (H shows the control value of more than 50%)”.

Turning to `Cc1c(OCC(C)C)cccc1-n1cc(Br)c(=O)c(Br)c1-c1c(F)cc(F)cc1F` [Compound 438], in experiment [1], the “Test G control value” was “L (L shows the control value of 50% or less)”. For the same molecule, the “Test E control value” in experiment [2] is given as “H (H shows the control value of more than 50%)”. For the same molecule, the “Test D control value” in experiment [3] was “L (L shows the control value of 50% or less)”. Also, the “Test C control value” in experiment [4] is “H (H shows the control value of more than 50%)”. Also, the “Test B control value” in experiment [5] is reported as “H (H shows the control value of more than 50%)”.

Turning to `Cc1cn(-c2ccccc2Cl)c(-c2c(F)cc(F)cc2F)c(C)c1=O` [Compound 439], the “Test G control value” in experiment [1] is listed as “L (L shows the control value of 50% or less)”. In experiment [2], the “Test E control value” is given as “H (H shows the control value of more than 50%)”. Further, the “Test D control value” in experiment [3] is listed as “H (H shows the control value of more than 50%)”. Moreover, in experiment [4], the “Test C control value” was “H (H shows the control value of more than 50%)”. In experiment [5], the “Test B control value” is “H (H shows the control value of more than 50%)”.

For `COc1cc(F)c(-c2c(C)c(=O)c(C)cn2-c2cccc(F)c2C)c(F)c1` [Compound 440], in experiment [1], the “Test G control value” is on record as “L (L shows the control value of 50% or less)”. The “Test E control value” in experiment [2] is listed as “H (H shows the control value of more than 50%)”. For the same molecule, in experiment [3], the “Test D control value” is on record as “H (H shows the control value of more than 50%)”. The “Test C control value” in experiment [4] is “H (H shows the control value of more than 50%)”. The “Test B control value” in experiment [5] is listed as “H (H shows the control value of more than 50%)”.

Turning to `Cc1cn(-c2ccccc2)c(-c2c(F)cc(F)cc2F)c(C)c1=O` [Compound 441], in experiment [1], the “Test G control value” is “H (H shows the control value of more than 50%)”. In addition, in experiment [2], the “Test E control value” is “H (H shows the control value of more than 50%)”. In addition, in experiment [3], the “Test D control value” is listed as “H (H shows the control value of more than 50%)”. Moreover, in experiment [4], the “Test C control value” is “H (H shows the control value of more than 50%)”. For the same molecule, the “Test B control value” in experiment [5] was “H (H shows the control value of more than 50%)”.

For the molecule `CCCc1ccccc1-n1cc(C)c(=O)c(C)c1-c1c(F)cc(F)cc1F` [Compound 445], the “Test G control value” in experiment [1] was “H (H shows the control value of more than 50%)”. In addition, the “Test E control value” in experiment [2] is reported as “H (H shows the control value of more than 50%)”. Further, in experiment [3], the “Test D control value” is given as “H (H shows the control value of more than 50%)”. Moreover, the “Test C control value” in experiment [4] is reported as “H (H shows the control value of more than 50%)”. In addition, the “Test B control value” in experiment [5] is listed as “H (H shows the control value of more than 50%)”.

As to `CCCc1ccccc1-n1cc(Cl)c(=O)c(Cl)c1-c1c(F)cc(F)cc1F` [Compound 446], in experiment [1], the “Test G control value” was “H (H shows the control value of more than 50%)”. Further, in experiment [2], the “Test E control value” is on record as “H (H shows the control value of more than 50%)”. Also, in experiment [3], the “Test D control value” is recorded as “H (H shows the control value of more than 50%)”. In addition, in experiment [4], the “Test C control value” is recorded as “H (H shows the control value of more than 50%)”. Also, the “Test B control value” in experiment [5] is “H (H shows the control value of more than 50%)”.

For `CCCc1ccccc1-n1cc(Cl)c(=O)c(Br)c1-c1c(F)cc(F)cc1F` [Compound 447], the “Test G control value” in experiment [1] was “L (L shows the control value of 50% or less)”. Besides, the “Test E control value” in experiment [2] was “H (H shows the control value of more than 50%)”. Moreover, the “Test D control value” in experiment [3] is given as “H (H shows the control value of more than 50%)”. The “Test C control value” in experiment [4] is recorded as “H (H shows the control value of more than 50%)”. Also, the “Test B control value” in experiment [5] is “H (H shows the control value of more than 50%)”.

For `Cc1ccc(F)cc1-n1cc(C)c(=O)c(C)c1-c1c(F)cccc1F` [Compound 448], in experiment [1], the “Test G control value” is “L (L shows the control value of 50% or less)”. Besides, the “Test E control value” in experiment [2] is recorded as “H (H shows the control value of more than 50%)”. Besides, in experiment [3], the “Test D control value” was “H (H shows the control value of more than 50%)”. Besides, in experiment [4], the “Test C control value” is “H (H shows the control value of more than 50%)”. Besides, the “Test B control value” in experiment [5] is reported as “H (H shows the control value of more than 50%)”.

For the molecule `Cc1ccc(F)cc1-n1cc(Cl)c(=O)c(Br)c1-c1c(F)cccc1F` [Compound 449], the “Test G control value” in experiment [1] is “L (L shows the control value of 50% or less)”. The “Test E control value” in experiment [2] is given as “H (H shows the control value of more than 50%)”. Moreover, the “Test D control value” in experiment [3] is “L (L shows the control value of 50% or less)”. For the same molecule, the “Test C control value” in experiment [4] is “H (H shows the control value of more than 50%)”. The “Test B control value” in experiment [5] is reported as “H (H shows the control value of more than 50%)”.
